Substitutions are numbered along the chain they refer to. The list shows a part of the results.
T1: UNK ZnF1-3 (human, UniProt Q9C0B0 31-174)
T1 sequence: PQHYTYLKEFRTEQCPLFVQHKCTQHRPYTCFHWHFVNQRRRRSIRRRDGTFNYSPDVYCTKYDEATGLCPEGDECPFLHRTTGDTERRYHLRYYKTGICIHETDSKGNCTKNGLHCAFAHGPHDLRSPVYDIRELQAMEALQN

B1: chr10:57943292:57943293:+_ENSMUSG00000003226_ENSMUST00000003310|mus_hu|FALSE|FALSE (ssRNA)
RNA: GGGAGUUCUACAGUCCGACGAUCCAAAGACCCAGUGGCUGAACUGUUGCCGAAUGCAAAUGGUUUUGAUUUUUCACUACUAAAAAUGCUUUUAACAGACUCUGAACCAAAUACAAACUUUGGAGGAGAAACCACUGCUUUUGGCAACAGAGGAUUGAGCAUCA
B2: chr4:144460044:144460045:+_ENSG00000153147_ENST00000283131|hu_mus|hu_hu_hu_mus_False|1_1 (ssRNA)
RNA: GGGAGUUCUACAGUCCGACGAUCACGGUCCAUAGCCUGAAGAUCAACUUGCGGAUUCCAAUCUGAGUCAUAUAAAAUGACUACAUCAGCAGUUGCAAGAUUGAUGCCCAGACCACCAGCACGUGUGCUUAGCAUAAAAACAAACAACAGAGGAUUGAGCAUCA
B3: chr4:58499471:58499472:-_ENSMUSG00000038668_ENSMUST00000055018|mus_mus|FALSE|FALSE (ssRNA)
RNA: GGGAGUUCUACAGUCCGACGAUCAGCGUAGAGAACCACCAUGACCACAAAGGUCACCAGGUUGAAAAUGGCCCAGAAGACUAAGUAGGAGUCACUGUAGAGGGGUGCCAUGUUGGAACAGUGAUCGAUAUCACAGAUGCAGUUCAACAGAGGAUUGAGCAUCA
B4: chr18:58099821:58099822:+_ENSMUSG00000024597_ENSMUST00000115366|mus_mus|motif|central (ssRNA)
RNA: GGGAGUUCUACAGUCCGACGAUCAUUUUCUUUUUUUGGCUUGGUGUUGAUAUCUCCAAGGACCAUGAUAUCAGAGAAGUCGGUCCGGAAUUUACUCAAUAAAGUAGCCAUCGCUCUCCGGUCAUGGUCUAUUCUGUUUAUUUUCAACAGAGGAUUGAGCAUCA
B5: chr12:39687257:39687258:-_ENSG00000139116_ENST00000551264|hu_hu|FALSE|FALSE (ssRNA)
RNA: GGGAGUUCUACAGUCCGACGAUCAAAAUCCAGUCAACAACUUUUAAAAAUUCAUACAGGCACAACACAAGAUAGUCUCUCUAUACAAUCUACCUAUUUACAUAGCUUUUCCCACCACAGAUGAUAAUAGCUCUCAUCAUAGCUCAACAGAGGAUUGAGCAUCA
B6: 168315348_168315897_2265_CDS_ENSG00000130396_ENST00000400822|human|control|control (ssRNA)
RNA: GGGAGUUCUACAGUCCGACGAUCGCAGCGUCGUAGCAAGGACAUGGCUCCUGUGAGCGUGUGCAGCACAUCAUCUAUUUUUGGUCGUUGCAGACUGUUCUCUUCAGGGUCAUCUAGAAAGGCUGGCAUGUAAUUAUUAAGUUCCAACAGAGGAUUGAGCAUCA
B7: chrX:140365678:140365679:-_ENSMUSG00000031285_ENSMUST00000033642|mus_mus|FALSE|FALSE (ssRNA)
RNA: GGGAGUUCUACAGUCCGACGAUCGUCAGAAGAAACAGCGUACACAAUCCCCUUGAAGUAACGGUCCCCAUUGCGGUAGAAACGUACCUUCUUGGCCUUCUUCUCAUUACUUAAUGCCUGCAAGGUUCUGGUUCUGUAGAAGCUCAACAGAGGAUUGAGCAUCA
B8: chr4:17845017:17845018:+_ENSG00000109805_ENST00000514176|hu_mus|hu_hu_hu_mus_False|58_98 (ssRNA)
RNA: GGGAGUUCUACAGUCCGACGAUCGCUCUCUUAACUUGAUCUUCAUUUAAGGAACUCUGCAAGGUUAAGUUUACUUUUUCUAGUGCUAGCUGUUUUGGCUCGUCUGGGUAAUCUCAUCUUCAUUUCUGAUGGUGGUUCAUGAUCCAACAGAGGAUUGAGCAUCA
B9: chr2:179515052:179515053:+_ENSMUSG00000000305_ENSMUST00000000314|mus_hu|mus_mus_mus_hu_False|1_58 (ssRNA)
RNA: GGGAGUUCUACAGUCCGACGAUCGCUGUCCCAUGCAGUCACCGUGAACGCCACCUGCUCGGAGGGGACCUGCAGCUCCCUAGUGGCGAAGACUGUCCCAUCUGCCCCAACUUUGAAGUCCAUGCUGUUGGUCUCAUACUGCAUCAACAGAGGAUUGAGCAUCA
B10: chr1:168153195:168153196:+_ENSG00000143155_ENST00000367833|hu_mus|motif|central (ssRNA)
RNA: GGGAGUUCUACAGUCCGACGAUCUAGAACGUUGUCUCCAAACAUCAUUUCAGGGAGGGAUGGCAUGUGCAGCUCGUCAGCGGACUUUUCCACAUCCGCAGACUUCAUGAUGUGGGUCUUGGACGCCGUCAGCUUCCAAGGCCCCAACAGAGGAUUGAGCAUCA
B11: 4744489_4745162_5046_CDS_ENSMUSG00000067889_ENSMUST00000008991|mouse|control|control (ssRNA)
RNA: GGGAGUUCUACAGUCCGACGAUCCUCUUUGAGGUCUGCAAUCCGGGGCUCAUGGCCCUGGAUCUCCUUCUGCAGGGUCUGGUUUUUCUUCAUGAGAAGCUGGACACUGGGCAAGUCCUUGCCAUGUUCCAGAGAGCUGGCCAUCAACAGAGGAUUGAGCAUCA
B12: chr1:220276048:220276049:+_ENSG00000067704_ENST00000302637|hu_hu|hu_hu_hu_mus_True|1_88 (ssRNA)
RNA: GGGAGUUCUACAGUCCGACGAUCGCAAAUUGCCUGGUUGGCGGGAAUCGUCCAAGGCUGGGUGGUCCAAACUAAAACGCUAACAGGGGAUGAGGCAUCUGUAAGAGACUCCAACUUCGGAGGAGGUCUCAGGAGGGGAAAUUUCAACAGAGGAUUGAGCAUCA
B13: 179959653_179961213_610_CDS_ENSG00000135837_ENST00000367607|human|control|control (ssRNA)
RNA: GGGAGUUCUACAGUCCGACGAUCAUCCAGGUAUCUACCAUCUUUUCUACUUAUUUUUCGAGUAGCACUUGUAGAAGACUUCUUGGUAUCCAUGACAGAAUCACACACAGCUGUACUUGUAGGGGCUACUUCUAAUUUAUUUUCCAACAGAGGAUUGAGCAUCA
B14: chr7:141445308:141445309:+_ENSG00000106028_ENST00000265304|hu_hu|hu_hu_hu_mus_False|18_58 (ssRNA)
RNA: GGGAGUUCUACAGUCCGACGAUCUAUGAUUGUUGUUGCUUGCCGCCUCACAUUGUUUUUAUCCAUGUACUCGCCAUAGUCUAUUUUCCCUUCCACAAAUAUACGAGCCCCCUUUUUCACAUAUUGAUAUGCCACAUCUCUGAGCAACAGAGGAUUGAGCAUCA
B15: chr17:49239293:49239294:+_ENSG00000239672_ENST00000393196|hu_hu|motif|central (ssRNA)
RNA: GGGAGUUCUACAGUCCGACGAUCGAGAACUCACAGCUCCAAGAGCUUCCCUCCAAAUUAUGAUGAAGUUCCUGUAAAUAACGGGAUUUCCUACAGCCUGGUCCUCUGCCCAUGGGAAGGAGGGGAAAUGGAUGUGAAAAGCAACAACAGAGGAUUGAGCAUCA
B16: chr1:39494564:39494565:+_ENSG00000168653_ENST00000372967|hu_hu|hu_hu_hu_mus_True|68_88 (ssRNA)
RNA: GGGAGUUCUACAGUCCGACGAUCAUGCAUUCGCCUCAUCGUUUUGUGCCGAAGCAAGCACUCUUCGAAAUCAUCAUACUCUAUCUUGCACUCCUUUUUCGCCCGGGUCCCACCGAUCCCGUGUGCACACUCUAUCCACUCUUUCAACAGAGGAUUGAGCAUCA
B17: chr1:163112212:163112213:-_ENSG00000143248_ENST00000313961|hu_hu|hu_hu_hu_mus_False|28_98 (ssRNA)
RNA: GGGAGUUCUACAGUCCGACGAUCUUUUAUUAUCAGUAAGCAUGAGUUACAUACUAGGCAAAGUAUUGGAUACAAUAAUCAGGAAACAAACACUAUUGGUCCAGAAUUUAAAAUAUAAUGAGCGAAGUGCUGGCACAGGACUUACAACAGAGGAUUGAGCAUCA
B18: chr3:95127578:95127579:-_ENSMUSG00000015697_ENSMUST00000107170|mus_mus|motif|central (ssRNA)
RNA: GGGAGUUCUACAGUCCGACGAUCGGUUAUGUAACAUUUUUAGUUAAAAAUUACACAGGGCAAAUAAAAUCGAGGUAUAAACGGAUGAUAGUUGCCCACUGGGAAAUGACAUGGAAGAUCAAGGCAGGAGAUAAGACAAACCACCAACAGAGGAUUGAGCAUCA
B19: chrX:20248820:20248821:+_ENSMUSG00000001924_ENSMUST00000001989|mus_mus|mus_mus_mus_hu_True|8_8 (ssRNA)
RNA: GGGAGUUCUACAGUCCGACGAUCGGCGAAGUCCGUCACCACAAAGUCAGGUUCUGCCAGUGAGGCCACCAAGGAUUUAAAGCUAAUCUUCUUAGGUACUUUGACCUGACUGACGAUGCCUCCACGGAUGUAGUCAGAGAAGUUCAACAGAGGAUUGAGCAUCA
B20: chr4:17845017:17845018:+_ENSG00000109805_ENST00000514176|hu_mus|hu_hu_hu_mus_False|8_38 (ssRNA)
RNA: GGGAGUUCUACAGUCCGACGAUCGCUCUCUUAACUUGUAUCUUCAUUAAGGAACUCUGCAAGGUUAAGUUUACUUUUCUGUAGCGCAGCUGUUUUGCUCGUCUUGGGUAAUCUCAUCUUCAUUUCUAUUCUGGUUCCAUGAUCCAACAGAGGAUUGAGCAUCA
B21: 28428117_28428237_10128_3pUTR_ENSG00000104290_ENST00000240093|human|control|control (ssRNA)
RNA: GGGAGUUCUACAGUCCGACGAUCGCCUAGUGCACAGAGAACAUUUAAUCUACCAGAGAACUCUGCGGAGAUAUGGAACUAAUGCAAUCUCUACUUUUUUUUUUUUCUUUUUUUUUUUUUGAGAUAGAGUCUCGCUCCGUUGCCCAACAGAGGAUUGAGCAUCA
B22: chr1:163112212:163112213:-_ENSG00000143248_ENST00000313961|hu_hu|hu_hu_hu_mus_False|48_68 (ssRNA)
RNA: B17 RNA with C40A, A41G, G68A, U75A, U93A, U113C, A114U, A116U

Biological target: T1, UNK ZnF1-3
Assay: nsRBNS (natural sequence RNA bind-n-seq); RBNS binding buffer (assumed for nsRBNS): 25 mM Tris pH 7.5, 150 mM KCl, 3 mM MgCl2, 0.01% Triton X-100, 500 ug/ml BSA, 20 U/ml SUPERase-In, 4 C; UNK is unkempt and MSI1 is Musashi-1; names of the RNAs are library labels; protein concentration not given here; high values mean tight binding

Row | Binder | binding signal
1 | B1 | 0.983 enrichment R
2 | B2 | 0.971 enrichment R
3 | B3 | 1.44 enrichment R
4 | B4 | 0.346 enrichment R
5 | B5 | 1.8 enrichment R
6 | B6 | 1.07 enrichment R
7 | B7 | 0.934 enrichment R
8 | B8 | 0.415 enrichment R
9 | B9 | 0.821 enrichment R
10 | B10 | 0.826 enrichment R
11 | B11 | 0.383 enrichment R
12 | B12 | 1.98 enrichment R
13 | B13 | 0.837 enrichment R
14 | B14 | 0.61 enrichment R
15 | B15 | 1.41 enrichment R
16 | B16 | 0.697 enrichment R
17 | B17 | 1.9 enrichment R
18 | B18 | 1.38 enrichment R
19 | B19 | 1.06 enrichment R
20 | B20 | 0.4 enrichment R
21 | B21 | 1.31 enrichment R
22 | B22 | 1.47 enrichment R

Reference: publication PMC12136788
